Source: PubChem BioAssay AID1159614 (National Center for Advancing Translational Sciences (NCATS), 2016)
Screen size: about 45,000 compounds; about 65 (0.1%) were called active. Calls come from the whole dose curve; as a rule, active = well fitted activation curve with a large enough effect; inconclusive = small, poorly fitted or top-dose-only effect; inactive = no such curve, though single readings can be large or run the other way. Some of the results follow.

target: Galactocerebrosidase (Homo sapiens) (UniProt P54803); experiment: A Novel Cell-Based Assay to Identify Small Molecules for B -Galactocerebrosidase; conditions: 145M-Twi-hGALC-G270D cells (Twitcher mouse brain line with human GALC G270D), HMU-beta-Gal fluorescence, 48 h; series mostly up to 57.5 µM; activation: at the top concentration; note: 0% is about no effect; nearly all actives have a fitted effect of over 65% in size
Sequence of UniProt P54803 (P54803 whole entry, looked up): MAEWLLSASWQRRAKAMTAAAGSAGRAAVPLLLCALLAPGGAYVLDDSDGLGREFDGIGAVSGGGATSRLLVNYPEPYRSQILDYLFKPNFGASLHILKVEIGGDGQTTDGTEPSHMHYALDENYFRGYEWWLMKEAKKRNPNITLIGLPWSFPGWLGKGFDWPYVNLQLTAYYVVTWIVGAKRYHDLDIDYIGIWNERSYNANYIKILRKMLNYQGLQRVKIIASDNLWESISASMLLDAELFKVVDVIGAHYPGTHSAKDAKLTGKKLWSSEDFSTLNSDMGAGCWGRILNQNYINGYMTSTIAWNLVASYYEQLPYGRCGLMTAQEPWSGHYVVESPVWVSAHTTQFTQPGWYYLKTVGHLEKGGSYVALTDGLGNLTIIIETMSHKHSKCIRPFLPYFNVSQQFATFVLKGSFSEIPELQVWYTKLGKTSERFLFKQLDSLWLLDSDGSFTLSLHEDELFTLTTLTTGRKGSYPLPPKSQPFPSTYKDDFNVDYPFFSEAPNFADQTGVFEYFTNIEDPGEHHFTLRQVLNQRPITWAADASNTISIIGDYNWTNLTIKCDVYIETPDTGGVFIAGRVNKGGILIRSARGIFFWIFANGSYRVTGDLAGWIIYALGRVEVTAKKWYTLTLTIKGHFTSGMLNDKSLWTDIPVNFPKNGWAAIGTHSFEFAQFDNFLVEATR
Procedure, shortened: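 Brain-derived Twitcher mouse 145M-Twi cells stably expressing human GALC-G270D or wild-type GALC, treated live, then residual GALC activity read by fluorescence of HMU-b-Gal substrate (0.1 mM final) in citrate-phosphate buffer pH 5.2 with sodium taurocholate. Signal increase indicates enhancement.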

activation, inactive:
CCc1ccccc1NC(=O)N1CCc2c([nH]c3ccccc23)C1c1ccc(C)cc1 (stereo unspecified) -11.6%
COc1ccc(CCNC(=O)c2cnn(-c3ccc(F)cc3)c2C2CCN(C(=O)OC(C)(C)C)CC2)c(OC)c1 -21%
Cc1ccc2ncc(C(=O)N3CCN(c4ccccc4F)CC3)c(=O)n2c1 -20%
CCOC(=O)N1CCc2c(sc3c2c(=O)n(Cc2ccccc2)c(=O)n3Cc2ccccc2Cl)C1 7.9%
C=CCc1c(C)nc2nc(SCC(=O)Nc3ccc(C)c(C)c3)nn2c1C -30.6%
COc1ccc(NC(=O)C2CCCN(S(=O)(=O)c3ccc4c(c3)oc(=O)n4C)C2)c(OC)c1 (stereo unspecified) -3.08%
Cc1cccc(CSc2nc(-c3cccs3)ccc2C#N)c1 -17.5%
O=C(COc1ccccc1F)Nc1nnc(SCc2cc(=O)c3ccccc3[nH]2)s1 -2.55%
Cc1c(NC(=O)c2cc(=O)c3ccccc3o2)c(=O)n(-c2ccccc2)n1C 8.09%
Cc1coc2c(C)c3oc(=O)c(CC(=O)NCCc4ccc(Cl)cc4)c(C)c3cc12 -7.92%
COCCCNC(=O)c1ccc(-n2c(-c3ccccc3)cc3c2CCC(C)C3)cc1 (stereo unspecified) -3.85%
COc1cccc(N2CCN(C(=O)c3cccn3-c3nnc(N4CCCC4)s3)CC2)c1 -21.8%
O=C(O)COc1nn(Cc2ccccc2)c2ccccc12 -10.9%
COc1cccc(-c2nnc(SCC(=O)NC3CCCCC3)o2)c1 -15.7%
COc1ccc(S(=O)(=O)Nc2ccc(-c3cn4ccsc4n3)cc2)cc1C -14.7%
COc1ccc(CCN2C(=O)c3oc4cc(C)cc(C)c4c(=O)c3C2c2ccccc2F)cc1OC (stereo unspecified) -1.23%
CCOc1ccc(CCNC(=O)C2CCN(C(=O)c3cc4sccc4n3CC)CC2)cc1OCC -12.2%
CC(=O)c1ccc(NS(=O)(=O)c2ccc(-c3cc(C)no3)s2)cc1 -39.5%
CCCn1c(=O)c2sccc2n2c(CCCC(=O)Nc3ccc(Oc4ccc(Cl)cc4)cc3)nnc12 -13%
Cc1ccc(NC(=O)c2ccc(CN3C(=O)CCn4nc(C)cc43)cc2)c(Cl)c1 -13.6%
Cc1cccc(NC(=O)CN2C(=O)c3cccc4cccc2c34)c1C -9.2%
CCCN1CCN(c2ncnc3sc(C(=O)Nc4c(C)cc(C)cc4C)c(C)c23)CC1 -17.3%
CCOC(=O)N1CCC2(CC1)OC(=O)C(C)=C2C(=O)NCc1cccc(F)c1 -12.7%
NC(=O)C1(N2CCCCC2)CCN(C(=O)Nc2ccc(F)cc2F)CC1 -1.18%
CCC1CN(S(=O)(=O)c2cc(-c3onc(C)c3C)ccc2C)c2cc(Cl)ccc2O1 (stereo unspecified) -8.12%
CCc1ccc(C(=O)c2cn(CC(=O)Nc3ccc(OC)cc3)c3cc4c(cc3c2=O)OCO4)cc1 -3.25%
Cc1cccc(C(=O)N2c3nc(-c4ccco4)nn3C3(CCCCC3)[C@@H]3CCCC[C@@H]32)c1 -8.02%
C#CCOc1ccc(C2CC(=O)Nc3c2c(C)nn3-c2nc(C)cc(C)n2)cc1 (stereo unspecified) -10.2%
Cc1cccc(-n2ncc3c(N4CCCC(C)C4)ncnc32)c1 (stereo unspecified) -18.4%
Cc1ccc(Cn2ccnc2SCC(=O)Nc2nc3ccccc3s2)cc1 -17%
Cc1cc(NC(=O)C2CCN(S(=O)(=O)c3cccc4nsnc34)CC2)ccc1Br -18.9%
NS(=O)(=O)c1ccc(NC(=O)C(=O)Nc2ccc3nc4n(c(=O)c3c2)CCCCC4)cc1 -14.8%
O=c1ccc(-c2ccccc2)nn1Cc1ccc(F)cc1Cl -13.4%
CN(C)CCCOc1nn(Cc2ccccc2)c2ccccc12 -4.37%
CCCCCCSc1nnc2c(n1)OC(C)Nc1ccc(Br)cc1-2 (stereo unspecified) -5.53%
CCOc1ccc2nc(N3CCCC(C(=O)Nc4cc(Cl)c(OC)cc4OC)C3)sc2c1 (stereo unspecified) -4.44%
Cc1c(C(=O)Nc2cccc(-c3nc4ccccc4s3)c2)oc2ccccc12 -3%
COc1ccc(CNC(=O)c2ccc(NC(=O)N3CCSc4ccccc43)cc2)cc1 -9.45%
CSc1nn(Cc2cccc(C)c2)c(N)c1S(=O)(=O)c1ccccc1 -12.6%
CCOC(=O)c1ccccc1NC(=O)COc1ccccc1-c1nnc(-c2ccccc2)o1 3.31%
CC(C)c1ccc2oc(-c3ccc(NC(=O)c4cccc(Br)c4)cc3)nc2c1 -16.2%
Cc1ccc(NC(=O)CC(C)S(=O)(=O)c2ccc3c(c2)NC(=O)CO3)c(Cl)c1 (stereo unspecified) -13.9%
Cc1ccc2nc(-c3ccc(NC(=O)c4ccc(S(C)(=O)=O)cc4)cc3)sc2c1 -28.9%
Cc1ccccc1Cn1c2ccccc2c2cnn(CC(=O)NC3CCC(C)CC3)c(=O)c21 (stereo unspecified) -18.8%
COc1cc2c(=O)n(CCC(=O)NCC3CCCO3)c(=O)n(CC(=O)Nc3ccc(C)cc3C)c2cc1OC (stereo unspecified) 7.98%
CCc1ccc(CNCc2c(C(=O)O)n(Cc3ccc(C)cc3)c3cc(C)ccc23)cc1 5.93%
COc1cc(NC(=O)C(CC(C)C)NS(=O)(=O)c2ccc3c(c2)CCN3C(C)=O)cc(OC)c1 (stereo unspecified) -8.86%
Cc1ccc2nc(NC(=O)CSc3ncc(C(=O)Nc4ccc(F)cc4)c(=O)n3C)sc2c1 -27.3%
Cc1c(CCC(=O)N2CCCCC2)c(=O)oc2cc3occ(C(C)(C)C)c3cc12 -2.08%
CCc1ccc(NC(=O)Cn2c(=O)n(-c3ccc(OC)cc3)c(=O)c3ccc(C(=O)NCc4ccc(C)cc4)cc32)cc1 -11.2%
Cc1ccc(CNC(=O)CCNS(=O)(=O)c2cccc3nsnc23)cc1 4.99%
CCn1cc(C(=O)N(C)c2ccc(C(C)C)cc2)c2cc(OC)c(OC)cc2c1=O 4.3%
Cc1nnc(SCC(=O)NCc2ccccc2Cl)c2nn(-c3ccccc3)c(C)c12 -23.3%
CCc1ccc(-n2nc(C)c3c(C)cc(=O)n(CC(=O)Nc4ccc(F)cc4C)c32)cc1 -3.14%
COc1ccc(CNC(=O)Cc2ccc(NC(=O)N3CCSc4ncccc43)cc2)cc1 -10.7%
COCCn1cc(C(=O)NCCCOC(C)C)c2c3ccccc3n(C)c2c1=O -28%
CCOC(=O)c1noc2nc(C)n(Cc3cccc([N+](=O)[O-])c3)c(=O)c12 -17.6%
Cc1ccc(Cc2nc3ccccc3nc2SCC(=O)N2CCN(c3ccc(F)cc3)CC2)cc1 -11%
Cn1c(=O)c2c(nc(N3CCOCC3)n2Cc2ccc(Br)cc2)n(C)c1=O -4.96%
CCOc1ccc(NC(=O)C2CCCN(c3nnc(C)c4c(C)n(-c5ccccc5)nc34)C2)cc1 (stereo unspecified) -9.96%
COc1ccccc1NC(=O)CSC1=Nc2ccccc2C2=NC(CC(=O)NCc3ccccc3)C(=O)N12 (stereo unspecified) -23%
CCC(C(=O)N1CCN(c2cc(C)ccc2C)CC1)n1nc(C)n2c(cc3occc32)c1=O (stereo unspecified) -13.4%
Cc1ccc(S(=O)(=O)N2CCc3cc(C(=O)Nc4c(F)cccc4F)ccc32)cc1 -1.73%
Cc1ccc2c(CN3CCN(C(=O)c4ccc(Br)cc4)CC3)cc(=O)oc2c1 -5.31%
CCOC(=O)Cn1c(=O)n(C2CCCCC2)c2nc(-c3ccc(C(C)C)cc3)nc(C(N)=O)c21 -11.4%
O=C(CSc1ccc(-c2ccccn2)nn1)Nc1ccc(F)cc1F -1.56%
Cc1ccc(CN2CCN(C3CCNCC3)C(=O)C2=O)cc1 -9.09%
COc1ccc(NC(=O)C2CCN(c3ccc(Sc4ccc(C)cc4)nn3)CC2)c(OC)c1 -7.92%
O=C(NCc1cccs1)C1CCN(C(=O)N2CCOc3ccc(Cl)cc32)CC1 -11%
O=C(Nc1ccc(Br)cc1)c1ccc(F)c(S(=O)(=O)N2CCc3ccccc32)c1 -3.66%
CC(=O)N1CCc2cc(S(=O)(=O)NC(Cc3ccccc3)C(=O)NCc3ccc(C)cc3)ccc21 (stereo unspecified) -2.74%
CNS(=O)(=O)c1cn(CC(=O)Nc2ccc(C(C)=O)cc2)cc1S(=O)(=O)NC -10.4%
CCCCNS(=O)(=O)c1ccc(C)c(-c2nnc3c4ccccc4c(C)nn23)c1 -9.12%
CC(=O)N1CCc2cc(CNC(=O)c3ccccc3Br)ccc21 -14.5%
Cc1ccc(CN2CCN(C3CCN(C(=O)Nc4ccc(C)cc4Cl)CC3)C(=O)C2=O)cc1 -9.83%
Cc1ccc(S(=O)(=O)C(CNC(=O)C(=O)NCc2ccccc2C)c2cccs2)cc1 (stereo unspecified) -2.62%
COc1ccc(CCNC(=O)C2CCN(S(=O)(=O)c3c(C)noc3/C=C/c3ccc(C)cc3)CC2)cc1OC -12.6%
CC(C)OC(=O)c1c(-c2ccccc2)c(-c2ccccc2)nn(C)c1=O -12.8%
Cc1cc(C)c(Cn2c(C3CC(=O)N(c4ccc(F)cc4)C3)nc3ccccc32)c(C)c1 (stereo unspecified) -18.4%
CC(C)CCN(C(=O)Nc1ccccc1)C(C)c1cccs1 (stereo unspecified) -5.78%
CCOC(=O)c1ccc(NC(=O)CCn2ccc(C)n2)cc1 -16.6%
COc1cccc(NC(=O)CSc2nc(=O)n(Cc3ccncc3)c3c2CCC3)c1 2.86%
Oc1ccc(NCc2ccccc2OCc2ccccc2F)cc1 -15.3%
CCc1ccc(NC(=O)CSc2nc3ccccc3c(=O)n2CCNC(C)=O)cc1 -15.8%
CC(=O)c1ccc(NC(=O)CCCSc2nc(-c3ccco3)cc(C(F)(F)F)n2)cc1 -3.62%
Cc1c(Cl)cccc1NC(=O)c1ncoc1-c1ccco1 -16.1%
Cc1ccc(NC(=O)C(C)n2nnc3sc4c(c3c2=O)CCCC4)cc1Cl (stereo unspecified) -13.6%
Cc1nc(-c2ccccc2)sc1CCNC(=O)C(=O)Nc1ccc2c(c1)OCO2 -25.3%
Cc1c(Cl)cccc1NC(=O)c1ccc2snnc2c1 9.33%
CCOC(=O)c1c(C)[nH]c(CCC(=O)NCc2ccccc2Cl)c1C -2.36%
CCOC(=O)c1cccc(Nc2cc(-c3ccccc3)ncn2)c1 -38.1%
CCOc1ccc(OCC)c(NC(=O)C2CCN(c3nnc(-n4cccc4)s3)CC2)c1 -13.3%
COc1ccccc1NC(=O)CCN1CCCCC1 -13%
Cc1cccc(N2CCN(S(=O)(=O)c3ccc4[nH]c5c(c4c3)CCCCC5)CC2)c1C -2%
Cc1cccc(C(=O)NCC(=O)OCc2cc(=O)n3nc(C4CCCCC4)sc3n2)c1 -7.58%
Cc1ccc(N(C)C(=O)C2CCN(S(=O)(=O)c3c(C)noc3/C=C/c3c(C)cc(C)cc3C)CC2)cc1 -4.29%
